# From article PMC4336329 (PLoS ONE, 2015)
# Screen size: about 310,000 compounds; about 2,200 (0.71%) showed an effect of 50% or more. Effects have a minus sign here. The list shows a part of the results.
# Molecular target: human ether-à-go-go-related gene (hERG) potassium channel (human, UniProt Q12809)
# Experiment: primary screen, population patch clamp on CHO cells stably expressing hERG
# human ether-à-go-go-related gene (hERG) potassium channel, sequence (Q12809 whole entry, looked up): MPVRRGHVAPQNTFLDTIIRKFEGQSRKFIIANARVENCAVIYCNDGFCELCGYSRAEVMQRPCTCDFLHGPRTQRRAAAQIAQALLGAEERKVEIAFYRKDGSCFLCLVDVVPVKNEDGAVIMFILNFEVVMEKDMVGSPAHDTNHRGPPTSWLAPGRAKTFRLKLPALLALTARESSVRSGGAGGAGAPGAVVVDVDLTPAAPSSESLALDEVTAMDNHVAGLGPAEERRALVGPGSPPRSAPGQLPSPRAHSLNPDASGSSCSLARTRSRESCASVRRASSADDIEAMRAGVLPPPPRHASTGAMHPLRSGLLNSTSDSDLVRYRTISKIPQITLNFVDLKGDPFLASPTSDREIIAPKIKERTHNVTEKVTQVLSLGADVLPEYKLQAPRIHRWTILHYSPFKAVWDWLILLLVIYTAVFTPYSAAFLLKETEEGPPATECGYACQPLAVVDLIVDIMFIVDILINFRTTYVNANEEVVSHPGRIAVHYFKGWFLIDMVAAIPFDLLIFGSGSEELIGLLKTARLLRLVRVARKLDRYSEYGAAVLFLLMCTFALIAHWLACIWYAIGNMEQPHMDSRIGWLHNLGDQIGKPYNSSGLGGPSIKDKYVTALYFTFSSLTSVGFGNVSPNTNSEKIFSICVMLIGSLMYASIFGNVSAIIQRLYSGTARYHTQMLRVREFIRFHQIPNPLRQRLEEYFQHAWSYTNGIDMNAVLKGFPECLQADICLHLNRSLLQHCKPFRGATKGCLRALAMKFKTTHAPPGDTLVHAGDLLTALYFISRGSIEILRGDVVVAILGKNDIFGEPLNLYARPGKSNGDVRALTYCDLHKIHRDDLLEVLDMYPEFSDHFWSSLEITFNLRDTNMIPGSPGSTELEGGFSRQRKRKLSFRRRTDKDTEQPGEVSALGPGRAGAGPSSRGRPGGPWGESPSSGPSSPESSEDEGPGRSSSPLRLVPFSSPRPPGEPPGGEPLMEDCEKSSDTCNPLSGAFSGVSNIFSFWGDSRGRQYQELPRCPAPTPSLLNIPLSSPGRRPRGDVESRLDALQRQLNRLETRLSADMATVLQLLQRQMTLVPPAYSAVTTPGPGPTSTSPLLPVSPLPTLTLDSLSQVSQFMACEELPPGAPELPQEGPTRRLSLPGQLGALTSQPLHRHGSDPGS
row,Compound,"hERG current change (%, negative = inhibition) at 1uM [%]"
1,CS(=O)(=O)N(CC(=O)NCCSc1ccccn1)c1cccc2ccccc12,-1.54
2,Cc1ccc2c(=O)[nH]c(Nc3nc(C)cc(-c4ccccc4)n3)nc2c1,11.8
3,CCn1c(=S)sc2c(=O)n(CC(=O)Nc3cccc(Br)c3)c(C)nc21,9.24
4,Cc1cc(C(=O)N2CCN(c3ncccc3C#N)CC2)no1,5.86
5,Cc1ccccc1Nc1nc(N)nc(CN2CCN(c3ccccn3)CC2)n1,-24.7
6,CN(C)S(=O)(=O)c1cccc(NC(=O)CN2C(=O)C3C4C=CC(C4)C3C2=O)c1 (centres unmarked),5.07
7,O=C(CCC(=O)N1CCOCC1)NCc1cccc(C(F)(F)F)c1,8.17
8,CC1CN(Cc2c(O)ccc3c(=O)c(-c4ccccc4)coc23)CC(C)O1.Cl (centres unmarked),2.87
9,COc1cnn(-c2ccc(C)cc2)c(=O)c1SCc1ccccc1,-1.89
10,CCOC(=O)c1c(-c2ccc(OC)cc2)csc1/N=C/C1C(=O)CCCC1=O,12.2
11,CN(C)C(=O)[C@@H]1C[C@H]1[C@@H](NC(=O)OCc1ccccc1)c1ccccc1,-40.2
12,O=c1c2cc(Br)ccc2[nH]c(=S)n1Cc1ccccn1,7.45
13,CCOC(=O)c1nn(-c2ccc(Cl)cc2)c(=O)c(C#N)c1C,17
14,COc1ccccc1C1NC(=O)NC(C)=C1C(=O)OC1CCC(C)CC1 (centres unmarked),12.2
15,Cc1cc(C)cc(NC(=O)Cn2c(-c3ccccc3Cl)nc3ccccc32)c1,5.25
16,COc1cccc2[nH]c3c(N4CCc5ccccc5C4)ncnc3c12,6.59
17,CCOc1ccccc1NC(=O)/C(C#N)=C/c1c(C)nn(-c2ccccc2)c1Cl,0.824
18,CN(C)c1ccc(C2N(c3ccc(F)cc3)C(=O)C3CCCN32)cc1 (centres unmarked),9.85
19,O=[N+]([O-])c1ccc(NCCCN2CCOCC2)nc1,-0.0778
20,COc1ccccc1N(CN1CCCC1=O)C(=O)c1ccccc1F,-12.3
21,CN1/C(=C\C(=O)COC(=O)c2ccc([N+](=O)[O-])o2)C(C)(C)c2ccccc21,2.83
22,O=C(Nc1ccc(Cl)c(Cl)c1)c1ccc(Cn2c(=O)[nH]c3ccsc3c2=O)cc1,10.3

row,Compound,"hERG current change (%, negative = inhibition) at 1uM [%]"
1,Cc1ccccc1CSc1nnc(-c2ccncc2)o1,3.37
2,CCn1nc(C(=O)OCC(=O)NCCN2C(=O)CSC2=O)c2ccccc2c1=O,3.42
3,CC(CCc1ccccc1)NC(=O)C(=O)N1CCOCC1 (centres unmarked),17.7
4,CCCC(=O)Nc1nc2nc(-c3ccccc3)cc(-c3ccccc3)n2n1,10
5,CC(=O)N(C)C1=C(N2CCOCC2)C(=O)c2ccccc2C1=O,5.31
6,CCCCc1ccc(NC(=S)N2CCN(C(=O)OCC)CC2)cc1,8.14
7,CN(CCCC(=O)O)S(=O)(=O)c1ccc2c(c1)C(=O)c1cc(S(=O)(=O)N(C)CCCC(=O)O)ccc1-2,13.5
8,CCCNC(=S)Nc1ccc(CC(=O)OC)cc1,4.55
9,COc1ccc(CCNC(=O)CCCc2nnc3n(C)c(=O)c4sccc4n23)cc1OC,12.7
10,CCSc1cc(N2CCCC2)nc(-c2ccccc2)n1,14.2
11,O=C(NCc1ccccc1Cl)c1csc2c1CCCCC2,19.1
12,CC1(C)CC(=O)C=C(NCCc2c[nH]c3ccccc23)C1,10.4
13,CCN(C(=O)COC(=O)C1CC1)c1c(N)n(Cc2ccccc2)c(=O)[nH]c1=O,-5.78
14,O=C(c1ccc(NS(=O)(=O)c2cccc([N+](=O)[O-])c2)cc1)N1CCN(C(=O)c2ccco2)CC1,1.11
15,CCc1ccc(NS(=O)(=O)c2c(C)nc3sc(CC)nn3c2=O)cc1,8.38
16,CCCN(C(=O)c1ccc(-n2cncn2)c([N+](=O)[O-])c1)C1CCS(=O)(=O)C1 (centres unmarked),19.7
17,COc1ccc(NC(=O)CSc2nc3nc(C)cc(C)c3c(=O)[nH]2)cc1,14.4
18,CC(=O)C(=Nc1cccc(Cl)c1)NNc1ccccc1C,14.3
19,O=C(Nc1ccc(N2CCN(C(=O)c3ccco3)CC2)c(Cl)c1)c1cccs1,8.91
20,CCc1oc(C(=O)OC)cc1CSC(=N)N.Cl,8.9
21,O=C(CCCN1C(=O)c2cccc3cccc(c23)C1=O)Nc1ccon1,13.4
22,Cc1ccc(NC(=O)C(c2ccccc2)N2CCN(CC(=O)N3CCOCC3)CC2)cc1Cl (centres unmarked),-27.1
